The text below walks through data of the supplement of paper PMC6657886.

MIC of clinical N. gonorrhoeae isolates (2015-2017) by agar dilution on GC agar with 1% IsoVitaleX (ranges not stated); higher = less susceptible. No active / inactive call per row; the paper counts benzylpenicillin above 1 and ceftriaxone above 0.125 mg/L as resistant (EUCAST). The method is stated for benzylpenicillin and ceftriaxone and assumed for the other drugs. '<=' is inferred from pile-ups at the end values. Isolates are numbered anew.

The MIC is the lowest concentration that inhibits growth of the organism.

What all share (assay): Agar dilution on enriched GC agar; resistance determinants by microarray.
Compound in one test: CC1(C)S[C@@H]2[C@H](NC(=O)Cc3ccccc3)C(=O)N2[C@H]1C(=O)O [benzylpenicillin]
Compound in the next test: CO/N=C(\C(=O)N[C@@H]1C(=O)N2C(C(=O)O)=C(CSc3nc(=O)c(O)nn3C)CS[C@H]12)c1csc(N)n1 [ceftriaxone]
Compound in a further test: CN[C@@H]1[C@H](O)[C@H](NC)[C@H]2O[C@@]3(O)C(=O)C[C@@H](C)O[C@H]3O[C@@H]2[C@H]1O [spectinomycin]
Compound in a further test: CC[C@H]1OC(=O)[C@H](C)[C@@H](O[C@H]2C[C@@](C)(OC)[C@@H](O)[C@H](C)O2)[C@H](C)[C@@H](O[C@@H]2O[C@H](C)C[C@H](N(C)C)[C@H]2O)[C@](C)(O)C[C@@H](C)CN(C)[C@H](C)[C@@H](O)[C@]1(C)O [azithromycin]
Compound in a further test: CN(C)[C@@H]1C(O)=C(C(N)=O)C(=O)[C@@]2(O)C(O)=C3C(=O)c4c(O)cccc4[C@@](C)(O)[C@H]3C[C@@H]12 [tetracycline]

Consider “Neisseria gonorrhoeae isolate 431 (blaTEM plasmid: no, gyrA: Phe91, Asn95, mtrR promoter: -35delA, parC: Arg87, Glu91, penA: ins345Asp, ponA: wild type, porB: Gly120, Gly121, rpsJ: Met57, tetM plasmid: yes)”, for which the MIC with benzylpenicillin is 0.25 µg/mL; with ceftriaxone, 0.008 µg/mL; in the test with spectinomycin, 32 µg/mL; in the test with azithromycin, 0.25 µg/mL; with tetracycline, 32 µg/mL.
With “Neisseria gonorrhoeae isolate 270 (blaTEM plasmid: no, gyrA: wild type, mtrR promoter: wild type, parC: wild type, penA: wild type, ponA: wild type, porB: wild type, rpsJ: wild type, tetM plasmid: no)”, the MIC is at most 0.015 µg/mL in the test with benzylpenicillin; at most 0.002 µg/mL with ceftriaxone; 16 µg/mL in the test with spectinomycin; 0.12 µg/mL in the test with azithromycin; 0.12 µg/mL with tetracycline.
“Neisseria gonorrhoeae isolate 78 (blaTEM plasmid: no, gyrA: Thr91, Gly95, mtrR promoter: wild type, parC: wild type, penA: ins345Asp, ponA: Pro421, porB: Asp120, Gly121, rpsJ: Met57, tetM plasmid: yes)”: the MIC in the test with benzylpenicillin is 0.06 µg/mL; with ceftriaxone it was at most 0.002 µg/mL; in the test with spectinomycin, 16 µg/mL; with azithromycin, 0.015 µg/mL; with tetracycline it was 4 µg/mL.
The matching figures for “Neisseria gonorrhoeae isolate 438 (blaTEM plasmid: no, gyrA: Phe91, Gly95, mtrR promoter: wild type, parC: Arg87, Glu91, penA: ins345Asp, ponA: Pro421, porB: Asp120, Ala121, rpsJ: Met57, tetM plasmid: no)”: 1 µg/mL, 0.004 µg/mL, 32 µg/mL, 0.015 µg/mL and 0.5 µg/mL.
Take “Neisseria gonorrhoeae isolate 137 (blaTEM plasmid: no, gyrA: Phe91, Asn95, mtrR promoter: -35delA, parC: wild type, penA: ins345Asp, ponA: Pro421, porB: Asn120, Asp121, rpsJ: Met57, tetM plasmid: no)”: the minimal inhibitory concentration (MIC) with benzylpenicillin was 1 µg/mL; in the test with ceftriaxone, 0.008 µg/mL; in the test with spectinomycin it was 16 µg/mL; with azithromycin it was 0.25 µg/mL; with tetracycline it was 1 µg/mL.
For “Neisseria gonorrhoeae isolate 220 (blaTEM plasmid: no, gyrA: Phe91, Asn95, mtrR promoter: -35delA, parC: Arg87, Glu91, penA: ins345Asp, ponA: Pro421, porB: Asn120, Asp121, rpsJ: Met57, tetM plasmid: no)”, the MIC was 0.5 µg/mL in the test with benzylpenicillin; 0.015 µg/mL with ceftriaxone; 16 µg/mL with spectinomycin; 0.25 µg/mL in the test with azithromycin; 2 µg/mL in the test with tetracycline.
The matching figures for “Neisseria gonorrhoeae isolate 335 (blaTEM plasmid: no, gyrA: Phe91, Gly95, mtrR promoter: wild type, parC: Arg87, Glu91, penA: ins345Asp, ponA: Pro421, porB: wild type, rpsJ: Met57, tetM plasmid: no)”: 0.25 µg/mL, at most 0.002 µg/mL, 8 µg/mL, 0.008 µg/mL and 0.5 µg/mL.
Consider “Neisseria gonorrhoeae isolate 115 (blaTEM plasmid: no, gyrA: Phe91, Asn95, mtrR promoter: -35delA, parC: wild type, penA: ins345Asp, ponA: Pro421, porB: Asn120, Asp121, rpsJ: Met57, tetM plasmid: no)”, for which the MIC in the test with benzylpenicillin turned out to be 1 µg/mL; in the test with ceftriaxone, 0.008 µg/mL; with spectinomycin, 16 µg/mL; with azithromycin, 0.25 µg/mL; with tetracycline, 1 µg/mL.
For the test system “Neisseria gonorrhoeae isolate 87 (blaTEM plasmid: no, gyrA: Thr91, Gly95, mtrR promoter: wild type, parC: wild type, penA: wild type, ponA: wild type, porB: wild type, rpsJ: wild type, tetM plasmid: yes)”, the MIC with benzylpenicillin is 0.06 µg/mL; with ceftriaxone, at most 0.002 µg/mL; in the test with spectinomycin it was 32 µg/mL; with azithromycin, 0.006 µg/mL; in the test with tetracycline it was 16 µg/mL.
On to “Neisseria gonorrhoeae isolate 233 (blaTEM plasmid: no, gyrA: wild type, mtrR promoter: wild type, parC: wild type, penA: ins345Asp, ponA: wild type, porB: wild type, rpsJ: wild type, tetM plasmid: no)”, for which the MIC is 0.06 µg/mL in the test with benzylpenicillin; 0.008 µg/mL with ceftriaxone; 16 µg/mL in the test with spectinomycin; 0.12 µg/mL with azithromycin; 0.25 µg/mL in the test with tetracycline.
As to “Neisseria gonorrhoeae isolate 29 (blaTEM plasmid: no, gyrA: wild type, mtrR promoter: wild type, parC: wild type, penA: ins345Asp, ponA: wild type, porB: wild type, rpsJ: wild type, tetM plasmid: no)”, the MIC is 0.25 µg/mL with benzylpenicillin; at most 0.002 µg/mL with ceftriaxone; 32 µg/mL with spectinomycin; 0.015 µg/mL in the test with azithromycin; 0.12 µg/mL with tetracycline.
As for “Neisseria gonorrhoeae isolate 45 (blaTEM plasmid: no, gyrA: wild type, mtrR promoter: wild type, parC: wild type, penA: wild type, ponA: wild type, porB: wild type, rpsJ: wild type, tetM plasmid: no)”, the MIC with benzylpenicillin is 0.25 µg/mL; with ceftriaxone, at most 0.002 µg/mL; with spectinomycin, 16 µg/mL; with azithromycin it was 0.06 µg/mL; with tetracycline, 0.5 µg/mL.
The matching figures for “Neisseria gonorrhoeae isolate 83 (blaTEM plasmid: no, gyrA: Phe91, Gly95, mtrR promoter: wild type, parC: Arg 87, Glu91, penA: ins345Asp, ponA: Pro421, porB: Asp120, Ala121, rpsJ: Met57, tetM plasmid: no)”: 0.03 µg/mL, at most 0.002 µg/mL, 16 µg/mL, 0.06 µg/mL and 0.12 µg/mL.
For the test system “Neisseria gonorrhoeae isolate 106 (blaTEM plasmid: no, gyrA: Phe91, Asn95, mtrR promoter: -35delA, parC: Ile87, Glu91, penA: ins345Asp, ponA: Pro421, porB: Lys 120, Gly121, rpsJ: Met57, tetM plasmid: no)”, the MIC in the test with benzylpenicillin worked out at 0.5 µg/mL; with ceftriaxone, 0.015 µg/mL; with spectinomycin, 16 µg/mL; in the test with azithromycin, 0.25 µg/mL; with tetracycline, 2 µg/mL.
The matching figures for “Neisseria gonorrhoeae isolate 239 (blaTEM plasmid: no, gyrA: wild type, mtrR promoter: wild type, parC: wild type, penA: ins345Asp, ponA: wild type, porB: wild type, rpsJ: wild type, tetM plasmid: no)”: 0.06 µg/mL, 0.008 µg/mL, 16 µg/mL, 0.12 µg/mL and 0.5 µg/mL.
Taken in the same sequence, the figures for “Neisseria gonorrhoeae isolate 439 (blaTEM plasmid: no, gyrA: Phe91, Asn 95, mtrR promoter: -35delA, parC: wild type, penA: ins345Asp, ponA: Pro421, porB: Asn120, Asp121, rpsJ: Met57, tetM plasmid: no)” were 1 µg/mL, 0.06 µg/mL, 16 µg/mL, 0.25 µg/mL and 2 µg/mL.
Taken in the same sequence, the figures for “Neisseria gonorrhoeae isolate 213 (blaTEM plasmid: no, gyrA: wild type, mtrR promoter: wild type, parC: wild type, penA: wild type, ponA: wild type, porB: wild type, rpsJ: wild type, tetM plasmid: no)” were at most 0.015 µg/mL, at most 0.002 µg/mL, 32 µg/mL, 0.008 µg/mL and 0.5 µg/mL.
On to “Neisseria gonorrhoeae isolate 347 (blaTEM plasmid: no, gyrA: Phe91, Gly95, mtrR promoter: -35delA, parC: Ser87, Gly91, penA: ins345Asp, ponA: Pro421, porB: wild type, rpsJ: Met57, tetM plasmid: no)”, for which the MIC with benzylpenicillin is 0.12 µg/mL; with ceftriaxone it was 0.008 µg/mL; with spectinomycin, 16 µg/mL; in the test with azithromycin it was 0.12 µg/mL; with tetracycline, 1 µg/mL.
For the test system “Neisseria gonorrhoeae isolate 484 (blaTEM plasmid: no, gyrA: wild type, mtrR promoter: -35delA, parC: wild type, penA: ins345Asp, ponA: wild type, porB: Asn120, Ala121, rpsJ: wild type, tetM plasmid: no)”, the MIC in the test with benzylpenicillin is at most 0.015 µg/mL; with ceftriaxone it was at most 0.002 µg/mL; in the test with spectinomycin it was 8 µg/mL; in the test with azithromycin it was 0.015 µg/mL; with tetracycline, 0.06 µg/mL.
On to “Neisseria gonorrhoeae isolate 173 (blaTEM plasmid: no, gyrA: wild type, mtrR promoter: wild type, parC: wild type, penA: wild type, ponA: wild type, porB: wild type, rpsJ: wild type, tetM plasmid: no)”, for which the MIC with benzylpenicillin is at most 0.015 µg/mL; in the test with ceftriaxone, at most 0.002 µg/mL; with spectinomycin, 32 µg/mL; in the test with azithromycin it was 0.03 µg/mL; with tetracycline it was 0.5 µg/mL.
Turning to “Neisseria gonorrhoeae isolate 122 (blaTEM plasmid: no, gyrA: wild type, mtrR promoter: wild type, parC: wild type, penA: ins345Asp, ponA: wild type, porB: wild type, rpsJ: wild type, tetM plasmid: no)”, the MIC was 0.12 µg/mL with benzylpenicillin; 0.008 µg/mL with ceftriaxone; 32 µg/mL in the test with spectinomycin; 0.015 µg/mL with azithromycin; 0.25 µg/mL with tetracycline.
“Neisseria gonorrhoeae isolate 469 (blaTEM plasmid: no, gyrA: Phe91, Asn 95, mtrR promoter: wild type, parC: wild type, penA: ins345Asp, ponA: Pro421, porB: Asp120, Gly121, rpsJ: Met57, tetM plasmid: yes)”: the MIC with benzylpenicillin is 1 µg/mL; in the test with ceftriaxone, at most 0.002 µg/mL; in the test with spectinomycin it was 16 µg/mL; with azithromycin, 0.06 µg/mL; with tetracycline it was 16 µg/mL.
As for “Neisseria gonorrhoeae isolate 171 (blaTEM plasmid: no, gyrA: Phe91, Gly95, mtrR promoter: wild type, parC: Arg87, Glu91, penA: ins345Asp, ponA: wild type, porB: Asn120, Asp121, rpsJ: Met57, tetM plasmid: no)”, the MIC worked out at 0.25 µg/mL with benzylpenicillin; 0.004 µg/mL with ceftriaxone; 16 µg/mL in the test with spectinomycin; 0.25 µg/mL in the test with azithromycin; 2 µg/mL in the test with tetracycline.
For “Neisseria gonorrhoeae isolate 148 (blaTEM plasmid: no, gyrA: Phe91, Asn95, mtrR promoter: wild type, parC: Arg 87, Glu91, penA: ins345Asp, ponA: Pro421, porB: Gly120, Gly121, rpsJ: Met57, tetM plasmid: no)”, the MIC was 1 µg/mL with benzylpenicillin; at most 0.002 µg/mL with ceftriaxone; 32 µg/mL in the test with spectinomycin; 0.25 µg/mL with azithromycin; 0.5 µg/mL with tetracycline.
Taken in the same sequence, the figures for “Neisseria gonorrhoeae isolate 292 (blaTEM plasmid: no, gyrA: wild type, mtrR promoter: wild type, parC: wild type, penA: ins345Asp, ponA: wild type, porB: wild type, rpsJ: wild type, tetM plasmid: no)” were 0.12 µg/mL, 0.008 µg/mL, 32 µg/mL, 0.25 µg/mL and 0.25 µg/mL.
